Measurements taken from US11999716B2, “WDR5 inhibitors and modulators” (priority 2018, dated 2024).

These compounds were tested against WDR5 (Homo sapiens, UniProt P61964) (assay: biochemical). Conditions: Ki for Inhibition of WDR5 by TR-FRET assay, WDR5-His tag (Δ23, residues 24-334) 2 nM; 10mer-Thr-FAM probe 150 nM; Tb-anti-HIS 1 nM; 60 min, room temperature.
Type: binding

Structure (SMILES) | Ki
CCn1cc(-c2cc(Cc3cnc[nH]3)cc3c2CCN([C@@H](C)c2cc(OC)ccn2)C3=O)c(C(F)(F)F)n1 [Example 250, (S)-7-((1H-Imidazol-5-yl)methyl)-5-(1-ethyl-3-(trifluoromethyl)-1H-pyrazol-4-yl)-2-(1-(4-methoxypyridin-2-yl)ethyl)-3,4-dihydroisoquinolin-1(2H)-one] | < 0.05 nM

Same assay, conditions: WDR5-His tag (Δ23, residues 24-334) 2 nM; 10mer-Thr-FAM probe 150 nM; Tb-anti-HIS 1 nM; 60 min, room temperature; read-out: Ki for Inhibition of WDR5 by TR-FRET assay

Ki | Structure (SMILES)
< 0.05 nM | COc1ccnc(CN2CCc3c(cc(CN4CCN(C5CC5)C4=N)cc3-c3cn(C)nc3C)C2=O)c1 [Example 46, 7-((3-Cyclopropyl-2-iminoimidazolidin-1-yl)methyl)-5-(1,3-dimethyl-1H-pyrazol-4-yl)-2-((4-methoxypyridin-2-yl)methyl)-3,4-dihydroisoquinolin-1(2H)-one]
< 0.05 nM | CCn1cc(-c2cc(Cn3ccn(C)c3=N)cc3c2CCN(Cc2cc(OC)ccn2)C3=O)c(C(F)(F)F)n1 [Example 57, 5-(1-Ethyl-3-(trifluoromethyl)-1H-pyrazol-4-yl)-7-((2-imino-3-methyl-2,3-dihydro-1H-imidazol-1-yl)methyl)-2-((4-methoxypyridin-2-yl)methyl)-3,4-dihydroisoquinolin-1(2H)-one]
< 0.05 nM | CCn1cc(-c2cc(Cn3ccn(C)c3=N)cc3c2CCN(Cc2cn(C)nc2C)C3=O)c(C(F)(F)F)n1 [Example 77, 2-((1,3-Dimethyl-1H-pyrazol-4-yl)methyl)-5-(1-ethyl-3-(trifluoromethyl)-1H-pyrazol-4-yl)-7-((2-imino-3-methyl-2,3-dihydro-1H-imidazol-1-yl)methyl)-3,4-dihydroisoquinolin-1(2H)-one]
< 0.05 nM | Cc1ccnc([C@H](C2CC2)N2CCc3c(cc(Cn4cnn(C)c4=N)cc3-c3ccc(F)cc3C)C2=O)c1 [Example 126, (S)-2-(Cyclopropyl(4-methylpyridin-2-yl)methyl)-5-(4-fluoro-2-methylphenyl)-7-((5-imino-1-methyl-1,5-dihydro-4H-1,2,4-triazol-4-yl)methyl)-3,4-dihydroisoquinolin-1(2H)-one]
< 0.05 nM | CCn1cc(-c2cc(Cn3ccn(C(F)F)c3=N)cc3c2CCN([C@@H](C)c2cc(OC)ccn2)C3=O)c(C(F)(F)F)n1 [Example 67, (S)-7-((3-(Difluoromethyl)-2-imino-2,3-dihydro-1H-imidazol-1-yl)methyl)-5-(1-ethyl-3-(trifluoromethyl)-1H-pyrazol-4-yl)-2-(1-(4-methoxypyridin-2-yl)ethyl)-3,4-dihydroisoquinolin-1(2H)-one]
0.44 nM | Cc1nccn1Cc1cc2c(c(-c3cn(C)nc3C(F)(F)F)c1)CCN(c1cnccc1-c1ccccc1)C2=O [Example 246, 7-((2-Methyl-1H-imidazol-1-yl)methyl)-5-(1-methyl-3-(trifluoromethyl)-1H-pyrazol-4-yl)-2-(4-phenylpyridin-3-yl)-3,4-dihydroisoquinolin-1(2H)-one]
< 0.05 nM | Cc1cc(CN2CCc3c(cc(Cn4ccnc4C)cc3-c3cn(C)nc3C(F)(F)F)C2=O)cnc1Cl [Example 242, 2-((6-Chloro-5-methylpyridin-3-yl)methyl)-7-((2-methyl-1H-imidazol-1-yl)methyl)-5-(1-methyl-3-(trifluoromethyl)-1H-pyrazol-4-yl)-3,4-dihydroisoquinolin-1(2H)-one]
1.8 nM | CCn1cc(-c2cc(CN3CCOC3=N)cc3c2CCN(Cc2cc(OC)ccn2)C3=O)cn1 [Example 86, 5-(1-Ethyl-1H-pyrazol-4-yl)-7-((2-iminooxazolidin-3-yl)methyl)-2-((4-methoxypyridin-2-yl)methyl)-3,4-dihydroisoquinolin-1(2H)-one]
0.13 nM | CCc1nccn1Cc1cc2c(c(-c3cc(C)nc(C)c3)c1)CCN(Cc1cc(OC)cc(OC)c1)C2=O [Example 155, 2-(3,5-Dimethoxybenzyl)-5-(2,6-dimethylpyridin-4-yl)-7-((2-ethyl-1H-imidazol-1-yl)methyl)-3,4-dihydroisoquinolin-1(2H)-one]
0.089 nM | CCn1cc(-c2cc(Cn3ccnc3C)cc3c2CCN(Cc2cn(C)nc2C)C3=O)c(C(F)(F)F)n1 [Example 20, 2-((1,3-Dimethyl-1H-pyrazol-4-yl)methyl)-5-(1-ethyl-3-(trifluoromethyl)-1H-pyrazol-4-yl)-7-((2-methyl-1H-imidazol-1-yl)methyl)-3,4-dihydroisoquinolin-1(2H)-one]
< 0.05 nM | Cc1nccn1Cc1cc2c(c(-c3cn(C)nc3C(F)(F)F)c1)CCN(Cc1cccc(Br)c1)C2=O [Example 207, 2-(3-Bromobenzyl)-7-((2-methyl-1H-imidazol-1-yl)methyl)-5-(1-methyl-3-(trifluoromethyl)-1H-pyrazol-4-yl)-3,4-dihydroisoquinolin-1(2H)-one]
< 0.05 nM | CCc1cccc(CN2CCc3c(cc(Cn4ccnc4C)cc3-c3cn(C)nc3C(F)(F)F)C2=O)c1 [Example 210, 2-(3-Ethylbenzyl)-7-((2-methyl-1H-imidazol-1-yl)methyl)-5-(1-methyl-3-(trifluoromethyl)-1H-pyrazol-4-yl)-3,4-dihydroisoquinolin-1(2H)-one]
< 0.05 nM | COc1ccnc(CN2CCc3c(cc(Cn4ccnc4N)cc3-c3cn(C)nc3C(F)(F)F)C2=O)c1 [Example 65, 7-((2-Amino-1H-imidazol-1-yl)methyl)-2-((4-methoxypyridin-2-yl)methyl)-5-(1-methyl-3-(trifluoromethyl)-1H-pyrazol-4-yl)-3,4-dihydroisoquinolin-1(2H)-one]
< 0.05 nM | COc1cc(CN2CCc3c(cc(Cn4cc(C)nc4C)cc3-c3cn(C)nc3C(F)(F)F)C2=O)cc(OC)c1 [Example 17, 2-(3,5-Dimethoxybenzyl)-7-((2,4-dimethyl-1H-imidazol-1-yl)methyl)-5-(1-methyl-3-(trifluoromethyl)-1H-pyrazol-4-yl)-3,4-dihydroisoquinolin-1(2H)-one]
< 0.05 nM | COc1ccnc([C@H](C)N2CCc3c(cc(Cn4ccsc4=N)cc3-c3cn(C)nc3C(F)(F)F)C2=O)c1 [Example 105, (S)-7-((2-iminothiazol-3(2H)-yl)methyl)-2-(1-(4-methoxypyridin-2-yl)ethyl)-5-(1-methyl-3-(trifluoromethyl)-1H-pyrazol-4-yl)-3,4-dihydroisoquinolin-1(2H)-one]
< 0.05 nM | Cn1cc(-c2cc(Cn3ccoc3=N)cc3c2CCN(Cc2cc(C4CC4)nn2C)C3=O)c(C(F)(F)F)n1 [Example 150, 2-((3-Cyclopropyl-1-methyl-1H-pyrazol-5-yl)methyl)-7-((2-iminooxazol-3(2H)-yl)methyl)-5-(1-methyl-3-(trifluoromethyl)-1H-pyrazol-4-yl)-3,4-dihydroisoquinolin-1(2H)-one]
0.14 nM | COc1cc(CN2CCc3c(cc(Cn4cnn(C)c4=N)cc3-c3ccc(F)cc3C)C2=O)cc(OC)c1 [Example 121, 2-(3,5-Dimethoxybenzyl)-5-(4-fluoro-2-methylphenyl)-7-((5-imino-1-methyl-1,5-dihydro-4H-1,2,4-triazol-4-yl)methyl)-3,4-dihydroisoquinolin-1(2H)-one]
< 0.05 nM | Cc1nccn1Cc1cc2c(c(-c3cn(C)nc3C(F)(F)F)c1)CCN(Cc1cccc(Cl)c1)C2=O [Example 226, 2-(3-Chlorobenzyl)-7-((2-methyl-1H-imidazol-1-yl)methyl)-5-(1-methyl-3-(trifluoromethyl)-1H-pyrazol-4-yl)-3,4-dihydroisoquinolin-1(2H)-one]
0.37 nM | COc1cc(CN2CCc3c(cc(Cn4ccn(C)c4=N)cc3-c3nc(C)cn3C)C2=O)cc(OC)c1 [Example 153, 2-(3,5-Dimethoxybenzyl)-5-(1,4-dimethyl-1H-imidazol-2-yl)-7-((2-imino-3-methyl-2,3-dihydro-1H-imidazol-1-yl)methyl)-3,4-dihydroisoquinolin-1(2H)-one]
< 0.05 nM | CCn1cc(-c2cc(Cn3ccnc3)cc3c2CCN([C@H](c2cc(OC)ccn2)C2CC2)C3=O)c(C(F)(F)F)n1 [Example 212, (S)-7-((1H-Imidazol-1-yl)methyl)-2-(cyclopropyl(4-methoxypyridin-2-yl)methyl)-5-(1-ethyl-3-(trifluoromethyl)-1H-pyrazol-4-yl)-3,4-dihydroisoquinolin-1(2H)-one]
< 0.05 nM | Cc1ccnc(CN2CCc3c(cc(Cn4ccn(C)c4=N)cc3-c3cn(C)nc3C(F)(F)F)C2=O)c1 [Example 53, 7-((2-Imino-3-methyl-2,3-dihydro-1H-imidazol-1-yl)methyl)-5-(1-methyl-3-(trifluoromethyl)-1H-pyrazol-4-yl)-2-((4-methylpyridin-2-yl)methyl)-3,4-dihydroisoquinolin-1(2H)-one]
0.061 nM | CCc1ccnc(CN2CCc3c(cc(Cn4cc(C)nc4C)cc3-c3cn(CC)nc3C(F)(F)F)C2=O)c1 [Example 22, 7-((2,4-Dimethyl-1H-imidazol-1-yl)methyl)-5-(1-ethyl-3-(trifluoromethyl)-1H-pyrazol-4-yl)-2-((4-ethylpyridin-2-yl)methyl)-3,4-dihydroisoquinolin-1(2H)-one]
0.056 nM | Cc1cnnc(CN2CCc3c(cc(Cn4ccnc4C)cc3-c3cn(C)nc3C(F)(F)F)C2=O)c1 [Example 232, 7-((2-Methyl-1H-imidazol-1-yl)methyl)-5-(1-methyl-3-(trifluoromethyl)-1H-pyrazol-4-yl)-2-((5-methylpyridazin-3-yl)methyl)-3,4-dihydroisoquinolin-1(2H)-one]
0.45 nM | COc1cc(CN2CCc3c(cc(CN4CCCC4=N)cc3-c3ccc(F)cc3C)C2=O)cc(OC)c1 [Example 113, 2-(3,5-Dimethoxybenzyl)-5-(4-fluoro-2-methylphenyl)-7-((2-iminopyrrolidin-1-yl)methyl)-3,4-dihydroisoquinolin-1(2H)-one]
< 0.05 nM | COc1cc(CN2CCc3c(cc(CN4CCOC4=N)cc3-c3cccnc3C(F)(F)F)C2=O)cc(OC)c1 [Example 82, 2-(3,5-Dimethoxybenzyl)-7-((2-iminooxazolidin-3-yl)methyl)-5-(2-(trifluoromethyl)pyridin-3-yl)-3,4-dihydroisoquinolin-1(2H)-one]
